# Inconclusive means that the source gave no clear call. Such entries were picked first, then a sample of the others. For some assays here: Potencies of inconclusive entries are doubtful fits and often do not repeat. The source made the active and inactive calls. Unless noted, calls come from the whole dose curve.
# What was measured:
# [1] = molecular target: Peroxisome proliferator-activated receptor delta (Homo sapiens) (UniProt Q03181); assay: qHTS assay to identify small molecule agonists of the peroxisome proliferator-activated receptor delta (PPARd) signaling pathway (AID 743212); settings: HEK293H PPARd-UAS-bla, beta-lactamase FRET ratio, 17 h; activation: at 62.6 µM (top of the series) unless noted; note: potency is the fitted concentration of half-maximal effect; for activation: % is set by controls: 0 for no effect and ±100 for the full control effect
# Sequence of UniProt Q03181 (Q03181 whole entry, looked up): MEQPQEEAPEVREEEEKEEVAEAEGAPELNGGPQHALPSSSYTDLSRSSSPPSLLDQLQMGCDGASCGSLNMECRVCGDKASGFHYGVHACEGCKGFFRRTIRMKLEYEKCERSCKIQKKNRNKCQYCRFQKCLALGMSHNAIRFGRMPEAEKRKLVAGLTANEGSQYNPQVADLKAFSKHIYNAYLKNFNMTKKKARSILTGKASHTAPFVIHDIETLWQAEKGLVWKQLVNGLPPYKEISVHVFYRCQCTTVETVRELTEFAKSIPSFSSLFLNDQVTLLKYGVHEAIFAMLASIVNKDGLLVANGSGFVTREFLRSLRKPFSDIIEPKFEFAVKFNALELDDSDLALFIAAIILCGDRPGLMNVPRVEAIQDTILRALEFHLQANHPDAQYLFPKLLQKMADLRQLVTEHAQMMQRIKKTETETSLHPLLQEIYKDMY
# Summary of the method: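 A PPARd-bla HEK293H line with beta-lactamase under an Upstream Activator Sequence is treated with compounds at 37 C. Substrate loading for 2 h at room temperature precedes the fluorescence measurement.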
# [2] = qHTS assay to identify small molecule antagonists of the peroxisome proliferator-activated receptor delta (PPARd) signaling pathway - cell viability counter screen (AID 743213; active = well fitted curve in the direction sought with a large enough effect in the repeat runs; inconclusive = weak or mixed curves; inactive = no such curve, though single readings can be large; an effect the other way counts as inactive or inconclusive; note: nearly all actives have a fitted effect of over 50% in size; note: potency is the fitted concentration of half-maximal effect; for viability change, negative = cytotoxic: % is set by controls: 0 for no effect and ±100 for the full control effect); settings: PPARd-bla HEK293H viability, CellTiter-Glo luminescence, 17 h; viability change, negative = cytotoxic: at 62 µM (top of the series) unless noted
# Summary of the method: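 PPARd-bla HEK293H cells were treated with compounds plus agonist L165041 (300 nM final) for 17 h at 37 C. Viability was then read in the same wells by CellTiter-Glo luminescence after 30 min at room temperature.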
# [3] = molecular target: Vitamin D3 receptor (Homo sapiens) (UniProt P11473); assay: qHTS assay to identify small molecule antagonists of the vitamin D receptor (VDR) signaling pathway (AID 743223; active = well fitted inhibition curve with a large enough effect in the signal ratio in the repeat runs, not every such curve was filed as active; inconclusive = weak or mixed curves, or effect the other way; inactive = no such curve, though single readings can be large or run the other way; the % refers to the signal ratio; note: potency is the fitted concentration of half-maximal effect); settings: VDR-UAS-bla HEK293T, beta-lactamase FRET ratio, 16 h; activity change, negative = inhibition: at 61 µM (top of the series) unless noted
# Sequence of UniProt P11473 (P11473 whole entry, looked up): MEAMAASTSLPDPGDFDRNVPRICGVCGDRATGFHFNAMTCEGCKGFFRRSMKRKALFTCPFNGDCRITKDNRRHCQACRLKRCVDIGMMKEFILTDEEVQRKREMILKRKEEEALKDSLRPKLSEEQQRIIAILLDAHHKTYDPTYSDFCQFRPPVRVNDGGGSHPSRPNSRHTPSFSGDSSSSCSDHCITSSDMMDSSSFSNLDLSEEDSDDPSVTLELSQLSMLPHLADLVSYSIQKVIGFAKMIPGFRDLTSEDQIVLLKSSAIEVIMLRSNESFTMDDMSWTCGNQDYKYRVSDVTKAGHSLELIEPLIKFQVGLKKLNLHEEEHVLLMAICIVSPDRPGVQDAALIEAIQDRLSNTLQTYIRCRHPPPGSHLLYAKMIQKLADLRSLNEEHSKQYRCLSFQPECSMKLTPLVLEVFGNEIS
# Summary of the method: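 Beta-lactamase activity in VDR-bla cells is measured by FRET substrate fluorescence (2 h, room temperature) after cells spend 16 h at 37C with test compound and 3 nM final 1alpha,25-dihydroxyvitamin D3.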
# [4] = qHTS assay to identify small molecule agonists of the endoplasmic reticulum stress response signaling pathway (AID 1159516; active = well fitted activation curve with a large enough effect in the signal ratio in the repeat runs, not every such curve was filed as active; inconclusive = weak or mixed curves, or effect the other way; the % refers to the signal ratio; note: potency is the fitted concentration of half-maximal effect); settings: ESRE-bla HeLa, ER stress beta-lactamase reporter, 5 h; activation: at 61 µM (top of the series) unless noted
# Summary of the method: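 ER stress element reporter (bla) in HeLa. 1,500 cells/well, overnight attachment; 5 hr compound; 2 hr RT substrate; dual-emission fluorescence.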
# [5] = qHTS assay to identify small molecule agonists of the AP-1 signaling pathway (AID 1159526); settings: ME-180 AP-1-bla reporter, beta-lactamase FRET ratio, 5 h; activation: at 76.8 µM (top of the series) unless noted; note: potency is the fitted concentration of half-maximal effect
# [6] = molecular target: Retinoic acid receptor RXR-alpha (Homo sapiens) (UniProt P19793); assay: qHTS assay to identify small molecule agonists of the RXR signaling pathway (AID 1159527); settings: HEK293T RXRa-UAS-bla, beta-lactamase ratio, 16 h; activation: at 76.8 µM (top of the series) unless noted; note: nearly all actives have a fitted effect of over 35% in size; note: potency is the fitted concentration of half-maximal effect
# Sequence of UniProt P19793 (P19793 whole entry, looked up): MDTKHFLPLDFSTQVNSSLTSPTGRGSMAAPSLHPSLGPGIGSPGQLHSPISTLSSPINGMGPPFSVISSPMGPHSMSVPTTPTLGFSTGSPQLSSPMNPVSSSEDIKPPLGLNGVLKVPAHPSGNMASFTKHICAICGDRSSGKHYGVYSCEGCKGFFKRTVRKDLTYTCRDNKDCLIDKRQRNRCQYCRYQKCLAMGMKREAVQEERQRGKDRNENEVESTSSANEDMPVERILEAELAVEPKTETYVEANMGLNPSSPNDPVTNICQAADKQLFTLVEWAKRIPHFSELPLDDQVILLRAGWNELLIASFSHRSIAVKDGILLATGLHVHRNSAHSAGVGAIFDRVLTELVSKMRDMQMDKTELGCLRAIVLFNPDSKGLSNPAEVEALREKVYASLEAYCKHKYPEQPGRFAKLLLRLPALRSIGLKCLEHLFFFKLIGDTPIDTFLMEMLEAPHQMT
# Summary of the method: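 Fluorescence ratio readout (460 vs 530 nm) from GeneBLAzer RXR-alpha HEK 293T cells after 16 hr compound treatment; cells seeded 5 hr beforehand in low-serum, charcoal-stripped medium.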
# [7] = molecular target: Peroxisome proliferator-activated receptor delta (Homo sapiens) (UniProt Q03181); assay: qHTS assay to identify small molecule antagonists of the peroxisome proliferator-activated receptor delta (PPARd) signaling pathway (AID 743215; active = well fitted inhibition curve with a large enough effect in the signal ratio in the repeat runs, not every such curve was filed as active; inconclusive = weak or mixed curves, or effect the other way; inactive = no such curve, though single readings can be large or run the other way; the % refers to the signal ratio;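 note: cells stimulated with agonist L165041 at 300 nM final during compound exposure; % is set by controls: 0 for no effect and ±100 for the full control effect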); settings: HEK293H PPARd-UAS-bla, beta-lactamase FRET ratio, antagonist, 17 h; ratio activity, negative = inhibition: at 62 µM (top of the series) unless noted
# Summary of the method: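 Antagonist-mode beta-lactamase reporter screen: HEK293H cells with UAS-bla under PPARd control, stimulated by 300 nM L165041 (final) alongside test compound for 17 h at 37 C, then FRET fluorescence after 2 h substrate incubation.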
# [8] = qHTS assay to identify small molecule agonists of the RXR signaling pathway - cell viability counter screen (AID 1159529; active = well fitted curve in the direction sought with a large enough effect in the repeat runs; inconclusive = weak or mixed curves; inactive = no such curve, though single readings can be large; an effect the other way counts as inactive or inconclusive; note: nearly all actives have a fitted effect of over 50% in size; note: potency is the fitted concentration of half-maximal effect)
# Summary of the method: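 Viability read-out for the RXR-alpha agonist qHTS: luminescent CellTiter-Glo signal after 30 min at RT. HEK 293T bla reporter cells, 2% charcoal-stripped FBS, 16 hr compound incubation; tetraoctyl ammonium bromide as cytotoxic control.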
# [9] = molecular target: Vitamin D3 receptor (Homo sapiens) (UniProt P11473); assay: qHTS assay to identify small molecule agonists of the vitamin D receptor (VDR) signaling pathway (AID 743222); settings: HEK293T VDR-UAS-bla, beta-lactamase FRET ratio, 16 h; activation: at 63.5 µM (top of the series) unless noted; note: potency is the fitted concentration of half-maximal effect
# Summary of the method: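 Agonist activity measured in VDR-bla reporter cells. Exposure 16 h, 37C, 5% CO2; detection by B/G FRET substrate, 2 h RT.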
# [10] = qHTS assay to identify small molecule agonists of the AP-1 signaling pathway - cell viability counter screen (AID 1159525); note: nearly all actives have a fitted effect of over 55% in size
# Summary of the method: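 ME-180 AP-1-bla, 2500 cells/well, Opti-MEM + 0.5% dialyzed FBS; overnight 37 °C; cpd 15-pt titration, 5 h 37 °C; CellTiter-Glo 30 min RT; luminescence read; normalised to TOAB and DMSO controls.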
# [11] = qHTS assay to identify small molecule agonists of the vitamin D receptor (VDR) signaling pathway - cell viability counter screen (AID 743224; active = well fitted curve in the direction sought with a large enough effect in the repeat runs; inconclusive = weak or mixed curves; inactive = no such curve, though single readings can be large; an effect the other way counts as inactive or inconclusive; note: nearly all actives have a fitted effect of over 50% in size; note: potency is the fitted concentration of half-maximal effect); settings: VDR-bla HEK293T viability, CellTiter-Glo luminescence, 16 h; activity change, negative = cytotoxicity: at 62.6 µM (top of the series)
# Summary of the method: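 VDR-bla cell line, quantitative HTS format; 16 h compound incubation (37C, 5% CO2); ATP-based CellTiter-Glo luminescence measured in the reporter assay wells.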
# [12] = qHTS assay to identify small molecule agonists of the farnesoid-X-receptor (FXR) signaling pathway - cell viability counter screen (AID 743218; active = well fitted curve in the direction sought with a large enough effect in the repeat runs; inconclusive = weak or mixed curves; inactive = no such curve, though single readings can be large; an effect the other way counts as inactive or inconclusive; note: nearly all actives have a fitted effect of over 45% in size; note: potency is the fitted concentration of half-maximal effect); settings: FXR-bla HEK293T viability, CellTiter-Glo luminescence, 16 h; viability change, negative = cytotoxic: at 62.6 µM (top of the series) unless noted
# Summary of the method: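 In GeneBLAzer FXR-UAS-bla HEK 293T cells, compounds act for 16 h at 37 C. Cell viability is then scored in the reporter wells by CellTiter-Glo, 30 min at RT, luminescence.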
# [13] = qHTS assay to identify small molecule antagonists of the farnesoid-X-receptor (FXR) signaling pathway - cell viability counter screen (AID 743221; active = well fitted cell-killing curve with a large enough effect in the repeat runs, not every such curve was filed as active; inconclusive = weak or mixed curves, or effect the other way; inactive = no such curve, though single readings can be large or run the other way; note: potency is the fitted concentration of half-maximal effect; nearly all actives have a fitted effect of over 50% in size); settings: FXR-bla HEK293T viability, CellTiter-Glo luminescence, 16 h; activity change, negative = cytotoxicity: at 62.6 µM (top of the series)
# Summary of the method: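 Compound effects on cell number were measured as CellTiter-Glo luminescence in HEK 293T cells expressing FXR-UAS-bla, after 16 h at 37 C with 50 uM CDCA (final).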
# [14] = qHTS assay to identify small molecule antagonists of the vitamin D receptor (VDR) signaling pathway - cell viability counter screen (AID 743225; active = well fitted curve in the direction sought with a large enough effect in the repeat runs; inconclusive = weak or mixed curves; inactive = no such curve, though single readings can be large; an effect the other way counts as inactive or inconclusive); settings: VDR-bla HEK293T viability, CellTiter-Glo luminescence, 16 h; viability change, negative = cytotoxic: at 61 µM (top of the series) unless noted
# Summary of the method: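 In this counter screen, VDR-bla HEK 293T cells receive test compound plus 3 nM final calcitriol for 16 h at 37C. Room-temperature steps of 2 h with the beta-lactamase substrate, then 30 min with CellTiter-Glo, precede the luminescence read.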
# [15] = qHTS assay to identify small molecule antagonists of the retinoid acid receptor (RAR) signaling pathway - cell viability counter screen (AID 1159551; active = well fitted curve in the direction sought with a large enough effect in the repeat runs; inconclusive = weak or mixed curves; inactive = no such curve, though single readings can be large; an effect the other way counts as inactive or inconclusive; note: potency is the fitted concentration of half-maximal effect; nearly all actives have a fitted effect of over 35% in size)
# Summary of the method: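 Following overnight attachment, C3RL4 reporter cells received DMSO-dissolved compounds and then retinol (1 uM final). Six hours later at 37 C, ATP content was measured by CellTiter-Glo luminescence.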
# [16] = molecular target: Bile acid receptor (Homo sapiens) (UniProt Q96RI1); assay: qHTS assay to identify small molecule agonists of the farnesoid-X-receptor (FXR) signaling pathway (AID 743220; active = well fitted activation curve with a large enough effect in the signal ratio in the repeat runs, not every such curve was filed as active; inconclusive = weak or mixed curves, or effect the other way; the % refers to the signal ratio; note: % is set by controls: 0 for no effect and ±100 for the full control effect); settings: HEK293T FXR-UAS-bla, beta-lactamase FRET ratio, 16 h; activation: at 62.6 µM (top of the series) unless noted
# Sequence of UniProt Q96RI1 (Q96RI1 whole entry, looked up): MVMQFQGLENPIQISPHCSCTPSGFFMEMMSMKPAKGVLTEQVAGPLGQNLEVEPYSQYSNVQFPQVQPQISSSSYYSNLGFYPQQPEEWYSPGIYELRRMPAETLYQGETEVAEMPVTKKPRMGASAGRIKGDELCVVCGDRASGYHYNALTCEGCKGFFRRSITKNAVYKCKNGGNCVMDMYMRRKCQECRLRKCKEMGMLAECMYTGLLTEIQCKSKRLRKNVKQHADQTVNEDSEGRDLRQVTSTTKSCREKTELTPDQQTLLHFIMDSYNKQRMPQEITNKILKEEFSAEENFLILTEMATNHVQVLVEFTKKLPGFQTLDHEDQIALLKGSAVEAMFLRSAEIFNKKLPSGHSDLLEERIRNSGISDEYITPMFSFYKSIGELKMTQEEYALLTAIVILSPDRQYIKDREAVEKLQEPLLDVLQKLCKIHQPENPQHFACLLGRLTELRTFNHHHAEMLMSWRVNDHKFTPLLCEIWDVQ
# Summary of the method: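 Beta-lactamase reporter under UAS control in GeneBLAzer FXR HEK 293T cells (5000/well) measured with LiveBLAzer FRET substrate after 2 h at room temperature. Compound exposure lasted 16 h at 37C.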
# [17] = molecular target: Bile acid receptor (Homo sapiens) (UniProt Q96RI1); assay: qHTS assay to identify small molecule antagonists of the farnesoid-X-receptor (FXR) signaling pathway (AID 743217; active = well fitted inhibition curve with a large enough effect in the signal ratio in the repeat runs, not every such curve was filed as active; inconclusive = weak or mixed curves, or effect the other way; inactive = no such curve, though single readings can be large or run the other way; the % refers to the signal ratio; note: potency is the fitted concentration of half-maximal effect); settings: HEK293T FXR-UAS-bla, beta-lactamase ratio, CDCA-stimulated, 16 h; activity change, negative = inhibition: at 62.6 µM (top of the series) unless noted
# Summary of the method: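 Beta-lactamase reporter under UAS control in HEK 293T cells; compound exposure 16 h at 37 °C in the presence of chenodeoxycholic acid (50 uM final); signal from B/G FRET substrate after 2 h at room temperature.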
# Tags give direction and shape of the fitted curve or compound fluorescence and quenching.
compound,measurement,setting,value
CCOC(=O)OC(C)OC(=O)[C@@H]1N2C(=O)[C@@H](NC(=O)[C@H](N)c3ccccc3)[C@H]2SC1(C)C (stereo not given in full),Potency,[1],inactive
same,Potency,[2],inactive
same,Potency,[3],inactive
same,activation,[4],inconclusive: 3.74%
same,Potency,[5],"inconclusive: 12 µM [activator, partial curve, poor fit]"
same,Potency,[6],inactive
Cc1cccc(S(=O)(=O)O)c1C,Potency,[1],inactive
same,Potency,[7],inactive
same,Potency,[3],"inconclusive: 0.0039 µM [activator, full curve, poor fit]"
same,Potency,[4],"inconclusive: 0.219 µM [falling, single point]"
same,Potency,[5],inactive
same,activation,[6],inconclusive: 7.75%
Cc1cscn1,Potency,[7],inactive
same,Potency,[4],"inconclusive: 59.4 µM [rising, single point]"
same,Potency,[5],inactive
same,activation,[6],inconclusive: 24.7%
same,Potency,[8],inactive
O=C(O)CCCc1c[nH]c2ccccc12,Potency,[9],"inconclusive: 1.95 µM [rising, full curve, poor fit]"
same,"activity change, negative = inhibition",[3],inconclusive: 18%
same,Potency,[4],"inconclusive: 49 µM [rising, single point]"
same,Potency,[10],inactive
same,activation,[6],inconclusive: -0.0878%
CN(C)CC/C=C1\c2ccccc2COc2ccccc21,Potency,[2],"inconclusive: 33.5 µM [cytotoxic, single point]"
same,Potency,[4],inactive
same,Potency,[5],inconclusive: 21.3 µM [activator]
same,Potency,[6],"inconclusive: 21.3 µM [rising, partial curve]"
same,Potency,[8],"inconclusive: 23.9 µM [cytotoxic, partial curve]"
Nc1ccc(C(=O)O)c(O)c1,Potency,[1],inactive
same,Potency,[4],"inconclusive: 0.134 µM [falling, full curve, poor fit]"
same,Potency,[5],inactive
CC(C)(Oc1ccc(Cl)cc1)C(=O)O,Potency,[1],inactive
same,"activity change, negative = inhibition",[3],inconclusive: -2.19%
same,Potency,[11],inactive
same,activation,[4],inconclusive: 10.9%
same,Potency,[5],inactive
SCCc1cnccn1,Potency,[11],inactive
same,Potency,[4],"inconclusive: 0.155 µM [rising, full curve, poor fit]"
same,Potency,[5],inactive
same,Potency,[6],inactive
O=Cc1ccc(O)c(O)c1O,Potency,[2],"inconclusive: 33.5 µM [cytotoxic, single point]"
same,Potency,[11],"inconclusive: 29.8 µM [cytotoxic, single point]"
same,Potency,[4],inactive
same,Potency,[5],"inconclusive: 26.8 µM [falling, partial curve, poor fit]"
same,activation,[6],inconclusive: -21.1% [at 35.3 µM]
O=C1CCCCCCCCCCOCCCCO1,Potency,[12],inactive
same,Potency,[4],"inconclusive: 0.0692 µM [rising, full curve, poor fit]"
same,Potency,[5],"inconclusive: 27.5 µM [falling, partial curve, poor fit]"
same,Potency,[8],"inconclusive: 43.6 µM [cytotoxic, partial curve]"
CC(C)=CCC[C@](C)(O)[C@@H]1CC=C(C)CC1,"ratio activity, negative = inhibition",[7],inconclusive: -23.9%
same,Potency,[13],"inconclusive: 61.6 µM [falling, single point]"
same,"activity change, negative = inhibition",[3],inconclusive: -28.1%
same,Potency,[11],"inconclusive: 54.9 µM [cytotoxic, partial curve, poor fit]"
same,Potency,[14],inactive
same,Potency,[4],inactive
same,Potency,[5],inconclusive: 27.5 µM
same,Potency,[15],"inconclusive: 48.6 µM [cytotoxic, partial curve, poor fit]"
N#Cc1cc2ccccc2c2ccccc12,Potency,[1],inactive
same,Potency,[16],inactive
same,Potency,[4],inactive
same,activation,[5],inconclusive: 26.2%
same,Potency,[8],"inconclusive: 43.9 µM [cytotoxic, partial curve, poor fit]"
ClCCl,Potency,[2],inactive
same,Potency,[12],"inconclusive: 0.0096 µM [cytotoxic, full curve, poor fit]"
same,"activity change, negative = inhibition",[3],inconclusive: 13.7%
same,Potency,[4],"inconclusive: 24.2 µM [rising, single point]"
same,Potency,[5],inactive
same,Potency,[6],inactive
C[C@]1(Cn2ccnn2)[C@H](C(=O)O)N2C(=O)C[C@H]2S1(=O)=O,Potency,[17],inconclusive: 11.9 µM
same,Potency,[13],"inconclusive: 0.119 µM [falling, single point]"
same,Potency,[3],"inconclusive: 4.25 µM [rising, full curve]"
same,Potency,[4],"inconclusive: 0.0067 µM [inhibitor, full curve]"
same,Potency,[5],inconclusive: 0.107 µM [inhibitor]
same,Potency,[6],inconclusive: 0.213 µM [inhibitor]
CCOC(=O)O[C@]1(C(=O)OCCl)CC[C@H]2[C@@H]3CCC4=CC(=O)C=C[C@]4(C)[C@H]3[C@@H](O)C[C@@]21C,Potency,[1],inconclusive: 23.7 µM [partial curve]
same,"ratio activity, negative = inhibition",[7],inconclusive: 6.44%
same,activation,[16],inconclusive: 6.28%
same,Potency,[9],"inconclusive: 29.8 µM [rising, partial curve]"
same,Potency,[3],inactive
same,activation,[4],inconclusive: 1.15%
same,activation,[5],inconclusive: 11.8% [at 35.3 µM]

# Source: PubChem BioAssay (Tox21)
